The data scatter; read single values as rough.
Assay: amyloid nucleation score relative to library mode (yeast Sup35 reporter selection) (log enrichment difference); higher = more amyloid nucleation; sequences are the first 22 residues of the Bri2 peptide extended by up to 12 random residues
Details: random library (experiment): 1;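 active = nucleation score significantly above 0 at FDR 0.05; inactive = not significantly above 0 or absent from output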
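Further: [psi-pin-] Saccharomyces cerevisiae expressing SupN fusions, induced by 100 µM Cu2SO4, selected 7 d at 30 °C without adenine and uracil, scored by deep sequencing of output versus input.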

Question: Which amyloid nucleation score does the source give for EASNCFAIRHFENKFAVETLICTIHCCQLEGSGN here?
Answer: Its amyloid nucleation score is 8.7.

Question: With EASNCFAIRHFENKFAVETLICRVWVLCSKHFRS as the sequence, how does the amyloid nucleation score read?
Answer: Its amyloid nucleation score is “inactive”.

Question: With EASNCFAIRHFENKFAVETLICDFWSVTRFYTWN as the sequence, how does the amyloid nucleation score read?
Answer: The amyloid nucleation score was “inactive”.

Question: For EASNCFAIRHFENKFAVETLICADGCTGATWPSM, which amyloid nucleation score is on record?
Answer: Its amyloid nucleation score is “inactive”.

Question: For EASNCFAIRHFENKFAVETLICLSGITRHDSR, which amyloid nucleation score is on record?
Answer: The amyloid nucleation score was 4.56.

Question: With EASNCFAIRHFENKFAVETLICCFYTVGK as the sequence, how does the amyloid nucleation score read?
Answer: Its amyloid nucleation score is 8.41.

Question: For EASNCFAIRHFENKFAVETLICAVFSLYVGQLSP, which amyloid nucleation score is on record?
Answer: The amyloid nucleation score was “inactive”.

Question: With EASNCFAIRHFENKFAVETLICIDLGGLEGTPSV as the sequence, how does the amyloid nucleation score read?
Answer: Its amyloid nucleation score is “inactive”.

Question: For EASNCFAIRHFENKFAVETLICRVVHRVRAPHGL, which amyloid nucleation score is on record?
Answer: Its amyloid nucleation score is “inactive”.

Question: For EASNCFAIRHFENKFAVETLICIERSNSGVRRGH, which amyloid nucleation score is on record?
Answer: Its amyloid nucleation score is “inactive”.

Question: Which amyloid nucleation score does the source give for EASNCFAIRHFENKFAVETLICGSVPVINVRYG here?
Answer: Its amyloid nucleation score is 4.51.

Question: Which amyloid nucleation score does the source give for EASNCFAIRHFENKFAVETLICPITACLCPARVS here?
Answer: The amyloid nucleation score was 7.22.

Question: With EASNCFAIRHFENKFAVETLICCCKYKHTPRTIL as the sequence, how does the amyloid nucleation score read?
Answer: Its amyloid nucleation score is “inactive”.

Question: Which amyloid nucleation score does the source give for EASNCFAIRHFENKFAVETLICQEGTAQLAGQQ here?
Answer: The amyloid nucleation score was “inactive”.

Question: Which amyloid nucleation score does the source give for EASNCFAIRHFENKFAVETLICVVTYNIS here?
Answer: Its amyloid nucleation score is “inactive”.

Question: For EASNCFAIRHFENKFAVETLICGCTVVSL, which amyloid nucleation score is on record?
Answer: The amyloid nucleation score was 5.81.

Question: For EASNCFAIRHFENKFAVETLICRRNAILSQTSFE, which amyloid nucleation score is on record?
Answer: Its amyloid nucleation score is “inactive”.

Question: For EASNCFAIRHFENKFAVETLICLVVSLLHASVRS, which amyloid nucleation score is on record?
Answer: Its amyloid nucleation score is “inactive”.

Question: With EASNCFAIRHFENKFAVETLICMSDHGSLTGYCG as the sequence, how does the amyloid nucleation score read?
Answer: The amyloid nucleation score was “inactive”.

Question: With EASNCFAIRHFENKFAVETLICKSRTSHDEVV as the sequence, how does the amyloid nucleation score read?
Answer: Its amyloid nucleation score is 0.458.

Question: Which amyloid nucleation score does the source give for EASNCFAIRHFENKFAVETLICGMSPMGG here?
Answer: Its amyloid nucleation score is -0.499.

Question: Which amyloid nucleation score does the source give for EASNCFAIRHFENKFAVETLICFRIGCHVSRTAV here?
Answer: Its amyloid nucleation score is 3.15.

Question: With EASNCFAIRHFENKFAVETLICDILGIWCCRKTQ as the sequence, how does the amyloid nucleation score read?
Answer: Its amyloid nucleation score is 8.49.

Question: With EASNCFAIRHFENKFAVETLICCSR as the sequence, how does the amyloid nucleation score read?
Answer: The amyloid nucleation score was 7.6.

Question: For EASNCFAIRHFENKFAVETLICKRYTLKCRQLML, which amyloid nucleation score is on record?
Answer: The amyloid nucleation score was “inactive”.

Question: For EASNCFAIRHFENKFAVETLICVQVLKWYYCYWE, which amyloid nucleation score is on record?
Answer: Its amyloid nucleation score is 5.77.

Question: With EASNCFAIRHFENKFAVETLICDNCDDNLYSEKY as the sequence, how does the amyloid nucleation score read?
Answer: The amyloid nucleation score was “inactive”.

Question: Which amyloid nucleation score does the source give for EASNCFAIRHFENKFAVETLICGFQIAD here?
Answer: Its amyloid nucleation score is “inactive”.

Question: With EASNCFAIRHFENKFAVETLICGSLEVTLSIWAG as the sequence, how does the amyloid nucleation score read?
Answer: Its amyloid nucleation score is 0.872.

Question: For EASNCFAIRHFENKFAVETLICAQSSKLKLLIHG, which amyloid nucleation score is on record?
Answer: The amyloid nucleation score was 4.49.

Question: For EASNCFAIRHFENKFAVETLICVKTPGISGVKGA, which amyloid nucleation score is on record?
Answer: Its amyloid nucleation score is “inactive”.

Question: With EASNCFAIRHFENKFAVETLICFMC as the sequence, how does the amyloid nucleation score read?
Answer: The amyloid nucleation score was 8.33.

Question: Which amyloid nucleation score does the source give for EASNCFAIRHFENKFAVETLICRYGLWKHMEGFI here?
Answer: The amyloid nucleation score was 2.15.

Question: With EASNCFAIRHFENKFAVETLICLDSEKDTYCLVS as the sequence, how does the amyloid nucleation score read?
Answer: Its amyloid nucleation score is “inactive”.

Question: With EASNCFAIRHFENKFAVETLICALLSFRLLFTWL as the sequence, how does the amyloid nucleation score read?
Answer: Its amyloid nucleation score is “inactive”.

Same assay, conditions: random library (experiment): 2

Question: Which amyloid nucleation score does the source give for EASNCFAIRHFENKFAVETLICVIRCRQGYMNKL here?
Answer: Its amyloid nucleation score is “inactive”.

Question: Which amyloid nucleation score does the source give for EASNCFAIRHFENKFAVETLICITCFMFIQSMEG here?
Answer: The amyloid nucleation score was “inactive”.

Question: With EASNCFAIRHFENKFAVETLICESYHGH as the sequence, how does the amyloid nucleation score read?
Answer: The amyloid nucleation score was “inactive”.

Question: For EASNCFAIRHFENKFAVETLICMFIAYL, which amyloid nucleation score is on record?
Answer: The amyloid nucleation score was “inactive”.

Question: With EASNCFAIRHFENKFAVETLICKTLQLSRPECLW as the sequence, how does the amyloid nucleation score read?
Answer: The amyloid nucleation score was “inactive”.

Question: For EASNCFAIRHFENKFAVETLICLSIFMLSCIRLG, which amyloid nucleation score is on record?
Answer: Its amyloid nucleation score is “inactive”.

Question: With EASNCFAIRHFENKFAVETLICGRRRCIYYEYWY as the sequence, how does the amyloid nucleation score read?
Answer: Its amyloid nucleation score is -0.489.

Question: For EASNCFAIRHFENKFAVETLICCFHSVSKSCSRE, which amyloid nucleation score is on record?
Answer: The amyloid nucleation score was 4.16.

Question: Which amyloid nucleation score does the source give for EASNCFAIRHFENKFAVETLICAQHIDKLACWSR here?
Answer: The amyloid nucleation score was 4.38.

Question: For EASNCFAIRHFENKFAVETLICMHGKLGSFIAC, which amyloid nucleation score is on record?
Answer: Its amyloid nucleation score is “inactive”.

Question: Which amyloid nucleation score does the source give for EASNCFAIRHFENKFAVETLICFMCTSADTDSW here?
Answer: Its amyloid nucleation score is 8.54.

Question: For EASNCFAIRHFENKFAVETLICHTQ, which amyloid nucleation score is on record?
Answer: Its amyloid nucleation score is 8.02.

Question: Which amyloid nucleation score does the source give for EASNCFAIRHFENKFAVETLICFYKNMFSEWF here?
Answer: The amyloid nucleation score was 0.391.

Question: Which amyloid nucleation score does the source give for EASNCFAIRHFENKFAVETLICYYYLLRTLVLNA here?
Answer: The amyloid nucleation score was -0.191.

Question: Which amyloid nucleation score does the source give for EASNCFAIRHFENKFAVETLICGNSVLQPLLLMR here?
Answer: The amyloid nucleation score was “inactive”.

Question: Which amyloid nucleation score does the source give for EASNCFAIRHFENKFAVETLICNYMCWIGWWLRY here?
Answer: The amyloid nucleation score was “inactive”.

Question: With EASNCFAIRHFENKFAVETLICLTDESGSSSGRH as the sequence, how does the amyloid nucleation score read?
Answer: The amyloid nucleation score was “inactive”.

Question: Which amyloid nucleation score does the source give for EASNCFAIRHFENKFAVETLICDIMV here?
Answer: Its amyloid nucleation score is “inactive”.

Question: Which amyloid nucleation score does the source give for EASNCFAIRHFENKFAVETLICCMNPMSRLDCSR here?
Answer: The amyloid nucleation score was 6.11.

Question: With EASNCFAIRHFENKFAVETLICARF as the sequence, how does the amyloid nucleation score read?
Answer: Its amyloid nucleation score is “inactive”.

Question: For EASNCFAIRHFENKFAVETLICVRRYSYLRLSDV, which amyloid nucleation score is on record?
Answer: The amyloid nucleation score was “inactive”.

Question: For EASNCFAIRHFENKFAVETLICRWPLIGLVDLAC, which amyloid nucleation score is on record?
Answer: Its amyloid nucleation score is 0.494.

Question: Which amyloid nucleation score does the source give for EASNCFAIRHFENKFAVETLICRIRLGYVINVDW here?
Answer: Its amyloid nucleation score is 0.693.

Question: For EASNCFAIRHFENKFAVETLICVNNGVQYPVDRA, which amyloid nucleation score is on record?
Answer: Its amyloid nucleation score is 5.18.

Question: For EASNCFAIRHFENKFAVETLICVDRIFSLVCFVC, which amyloid nucleation score is on record?
Answer: The amyloid nucleation score was 0.261.

Question: With EASNCFAIRHFENKFAVETLICASLGPKPQYVWR as the sequence, how does the amyloid nucleation score read?
Answer: Its amyloid nucleation score is 4.52.

Question: For EASNCFAIRHFENKFAVETLICFVRTDLAQRGRK, which amyloid nucleation score is on record?
Answer: Its amyloid nucleation score is 6.05.

Question: For EASNCFAIRHFENKFAVETLICVVLWMRMTDFRE, which amyloid nucleation score is on record?
Answer: Its amyloid nucleation score is “inactive”.

Question: With EASNCFAIRHFENKFAVETLICVHYIKCCWDHA as the sequence, how does the amyloid nucleation score read?
Answer: The amyloid nucleation score was 5.38.

Question: With EASNCFAIRHFENKFAVETLICRRLGFGLVGPVS as the sequence, how does the amyloid nucleation score read?
Answer: Its amyloid nucleation score is “inactive”.

Question: For EASNCFAIRHFENKFAVETLICTSQMGEPDTLGW, which amyloid nucleation score is on record?
Answer: Its amyloid nucleation score is 0.607.

Same assay, conditions: random library (experiment): 3

Question: For EASNCFAIRHFENKFAVETLICGQLTFSSWILR, which amyloid nucleation score is on record?
Answer: The amyloid nucleation score was “inactive”.

Question: With EASNCFAIRHFENKFAVETLICMNFRRIVLDAAS as the sequence, how does the amyloid nucleation score read?
Answer: The amyloid nucleation score was “inactive”.

Question: For EASNCFAIRHFENKFAVETLICGRHRSLLPSTWG, which amyloid nucleation score is on record?
Answer: Its amyloid nucleation score is “inactive”.

Question: Which amyloid nucleation score does the source give for EASNCFAIRHFENKFAVETLICILCLFNCEMIVR here?
Answer: Its amyloid nucleation score is 0.0556.

Question: For EASNCFAIRHFENKFAVETLICLVLGTCASVSDA, which amyloid nucleation score is on record?
Answer: Its amyloid nucleation score is “inactive”.

Question: With EASNCFAIRHFENKFAVETLICRKTC as the sequence, how does the amyloid nucleation score read?
Answer: Its amyloid nucleation score is “inactive”.

Question: For EASNCFAIRHFENKFAVETLICLPPLGTPRRNCL, which amyloid nucleation score is on record?
Answer: The amyloid nucleation score was 1.1.

Question: Which amyloid nucleation score does the source give for EASNCFAIRHFENKFAVETLICVTVRSRRGSGSR here?
Answer: Its amyloid nucleation score is “inactive”.

Question: With EASNCFAIRHFENKFAVETLICCMWFHDNQALPS as the sequence, how does the amyloid nucleation score read?
Answer: Its amyloid nucleation score is 9.01.

Question: With EASNCFAIRHFENKFAVETLICLNASINGCSRLQ as the sequence, how does the amyloid nucleation score read?
Answer: The amyloid nucleation score was 9.08.

Question: For EASNCFAIRHFENKFAVETLICWNVNPRLFISLS, which amyloid nucleation score is on record?
Answer: Its amyloid nucleation score is “inactive”.

Question: With EASNCFAIRHFENKFAVETLICDGWGGKWRRGPR as the sequence, how does the amyloid nucleation score read?
Answer: Its amyloid nucleation score is 4.32.

Question: For EASNCFAIRHFENKFAVETLICIINRMFHEMAQA, which amyloid nucleation score is on record?
Answer: Its amyloid nucleation score is “inactive”.

Question: For EASNCFAIRHFENKFAVETLICNFSDLNMYAFCR, which amyloid nucleation score is on record?
Answer: The amyloid nucleation score was 7.81.

Question: With EASNCFAIRHFENKFAVETLICYDLLCEQHNGAC as the sequence, how does the amyloid nucleation score read?
Answer: The amyloid nucleation score was “inactive”.

Question: With EASNCFAIRHFENKFAVETLICRRVRRIFLWGTR as the sequence, how does the amyloid nucleation score read?
Answer: Its amyloid nucleation score is “inactive”.

Question: Which amyloid nucleation score does the source give for EASNCFAIRHFENKFAVETLICATDAKVYDVVMQ here?
Answer: Its amyloid nucleation score is “inactive”.

Question: With EASNCFAIRHFENKFAVETLICRSYCTGEVLILE as the sequence, how does the amyloid nucleation score read?
Answer: Its amyloid nucleation score is “inactive”.

Question: Which amyloid nucleation score does the source give for EASNCFAIRHFENKFAVETLICAGRESEPRKQVR here?
Answer: The amyloid nucleation score was “inactive”.

Question: For EASNCFAIRHFENKFAVETLICISVNQVSFRTAP, which amyloid nucleation score is on record?
Answer: The amyloid nucleation score was 4.76.

Reference: the supplement of paper PMC12067230
